According to PubChem BioAssay AID485294 (National Center for Advancing Translational Sciences (NCATS), 2010):
Among all 370,000 compounds or so, about 150 (0.041%) were called active. This list was built around the results that the source calls inconclusive (neither active nor inactive); the mix of calls is not that of the screen. Calls follow the shape of the dose curve; as a rule, active = well fitted inhibition curve with a large enough effect; inconclusive = small, poorly fitted or top-dose-only effect; inactive = flat fitted curve, though single readings scatter. No potency is given beside an inconclusive call; the fits are too rough.

molecular target: Beta-lactamase (Escherichia coli (strain K12)) (UniProt P00811); assay: qHTS Inhibitors of AmpC Beta-Lactamase (assay with detergent); details: AmpC hydrolysis of nitrocefin, absorbance 480 nm, 0.01% Triton; series mostly up to 114 µM; also: nearly all actives have a fitted effect of over 25% in size
Sequence of UniProt P00811 (P00811 whole entry, looked up): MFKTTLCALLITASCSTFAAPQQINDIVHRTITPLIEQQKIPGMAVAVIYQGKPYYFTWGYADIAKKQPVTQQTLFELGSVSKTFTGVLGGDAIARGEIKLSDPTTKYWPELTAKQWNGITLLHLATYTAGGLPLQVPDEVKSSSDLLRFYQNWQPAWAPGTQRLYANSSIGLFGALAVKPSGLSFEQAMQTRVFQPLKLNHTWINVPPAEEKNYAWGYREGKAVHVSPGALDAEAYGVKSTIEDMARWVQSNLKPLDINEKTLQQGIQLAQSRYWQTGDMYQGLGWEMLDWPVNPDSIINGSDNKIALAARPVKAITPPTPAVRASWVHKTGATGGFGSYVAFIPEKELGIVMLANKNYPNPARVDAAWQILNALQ
Summary of the method: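 AmpC (5.3 nM in the dispensed reagent) in 20 mM phosphate pH 7.0 with 0.01% (detergent screen) or 0.0001% Triton X-100 was preincubated with compounds for 15 min at room temperature. Nitrocefin was then added from an 800 uM solution, and hydrolysis was followed at 480 nm.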
Potency is read from the fitted curve at half-maximal effect; tags tell the direction and shape of the fitted curve.

Structure (SMILES)	Potency
O=C(NC1CCCCC1)c1ccc(Br)o1	inconclusive [inhibitor, full curve]
O=C(CN1C(=O)NC2(CCCC2)C1=O)c1ccc(Cl)s1	inconclusive [inhibitor, single point]
CCc1ccc(-c2nc(CSCC(=O)NCc3ccc(C)cc3)c(C)o2)cc1	inconclusive [inhibitor, single point]
CCc1ccc(NC(=O)C2CCN(S(=O)(=O)c3ccc4c(c3)NC(=O)C(C)S4)CC2)cc1 (configuration not stated)	inactive
CCc1nc2ccccc2n1Cc1ccccc1F	inactive
Cc1ccc(-n2nnnc2SC(C)C(N)=O)c(C)c1 (configuration not stated)	inconclusive [inhibitor, partial curve, poor fit]
O=C(O)CCCCCCC1C(=O)NC(=O)N1CCC(O)C1CCCCC1 (configuration not stated)	inconclusive [inhibitor, full curve, poor fit]
Oc1ccc(C2C(c3ccccc3)=NN=C(c3ccccc3F)N2O)c(O)c1 (configuration not stated)	inconclusive [inhibitor, partial curve]
Cc1ccc(-n2nnc3c(=O)n(CC(=O)OCc4ccccc4)cnc32)cc1	inconclusive [inhibitor, full curve]
Cc1cccc(NS(=O)(=O)c2cccc(C(=O)NCC(c3ccco3)N3CCCCC3)c2)c1 (configuration not stated)	inconclusive [inhibitor, full curve, poor fit]
COc1ccc(C(=O)N2CCCC(C(N)=O)C2)cc1S(=O)(=O)N1CCOCC1 (configuration not stated)	inconclusive [inhibitor, partial curve, poor fit]
CC(C)N1CCN(Cc2cc3ccccc3[nH]2)CC1CCO (configuration not stated)	inconclusive [inhibitor, partial curve, poor fit]
COC(=O)C1=C(C)N(CC2CC2)C(=NCCN2CCOCC2)N[C@H]1c1ccccc1	inconclusive [inhibitor, partial curve, poor fit]
Cc1ccc(NC(=O)c2oc3ccccc3c2NC(=O)C2CCCCC2)cc1	inactive
Oc1cccc(/C=N/Nc2cc(N3CCCC3)nc(N3CCCC3)n2)c1	inconclusive [inhibitor, partial curve, poor fit]
O=c1cc(C(F)(F)F)oc2c1ccc1ccccc12	inconclusive [inhibitor, full curve, poor fit]
O=C(N=Nc1c(O)[nH]c2ccccc12)c1cccs1	inactive
O=C1CN(c2ccccc2Cl)C(=O)CN1c1ccccc1Cl	inconclusive [inhibitor, full curve, poor fit]
Cc1cc(C)nc(N2CCCC(C(=O)NCCc3ccc(F)cc3)C2)n1 (configuration not stated)	inconclusive [inhibitor, partial curve, poor fit]
Cc1ncc([N+](=O)[O-])n1CC(=O)Nc1cc(Cl)ccc1Cl	inactive
CCOc1ccc(Nc2cc(=O)n(C)c(=O)n2C)cc1	inconclusive [inhibitor, full curve, poor fit]
CCCCOc1ccc(/C=C/C(=O)OCC(=O)N2CC(=O)Nc3ccccc32)cc1OCC	inactive
COc1ccc(/C=C2\SC(=S)N(CCC(=O)NC3=NCCS3)C2=O)cc1OC	inconclusive [inhibitor, full curve, poor fit]

Structure (SMILES)	Potency
O=C1C2C3C=CC(C3)C2C(=O)N1CCCCN1C(=O)C2C3C=CC(C3)C2C1=O (configuration not stated)	inconclusive [inhibitor, full curve, poor fit]
Cc1ccsc1/C=N/n1c(-c2ccncc2)n[nH]c1=S	inconclusive [inhibitor, partial curve]
CC(C)Oc1ccc(CNC(=O)Oc2ccccc2)cc1	inconclusive [inhibitor, full curve, poor fit]
Cc1cc(N2CCNCC2)nc2ccccc12	inactive
Cc1ccc(CNC(=O)/C=C/c2ccc(Br)o2)cc1	inconclusive [inhibitor, full curve]
CC(C)Sc1nc(N)c2c3c(sc2n1)CN(C)CC3	inconclusive [inhibitor, full curve, poor fit]
Cc1ccsc1CN1CCC(C(=O)NCc2ccccc2Cl)CC1	inconclusive [inhibitor, partial curve, poor fit]
Cc1c(CCC(=O)N[C@@H](CC(C)C)C(=O)O)c(=O)oc2c(C)c3oc4c(c3cc12)CCCC4	inconclusive [inhibitor, full curve, poor fit]
Cc1cccc(N2CCN(C(=O)CS(=O)(=O)Cc3nc(-c4ccccc4F)oc3C)CC2C)c1 (configuration not stated)	inconclusive [inhibitor, partial curve, poor fit]
CCOC(=O)n1ccc(C(=O)Nc2ccccc2F)n1	inconclusive [inhibitor, partial curve, poor fit]
COc1ccc(NC(=O)COCc2cc(-c3ccco3)on2)cc1Cl	inconclusive [inhibitor, single point]
O=C(CCS(=O)(=O)Cc1ccccc1)NCc1ccco1	inconclusive [inhibitor, partial curve]
CC1=C(C(=O)Nc2cc(C)cc(C)c2)C2(CCCCC2)OC1=O	inactive
COCCNC(=O)CN(C(=O)CCC(=O)Nc1cc(C)on1)c1ccc(C)cc1C	inconclusive [inhibitor, partial curve, poor fit]
Cc1cc(C)c(NC(=O)CCN2CCCCC2)c(C)c1	inactive
Cc1cccc(C)c1NC(=O)CNC(=O)c1ccccc1	inconclusive [inhibitor, full curve, poor fit]
CCC(OC(=O)c1ccco1)C(=O)NCc1ccc(C)cc1 (configuration not stated)	inconclusive [inhibitor, full curve, poor fit]
CC(C)CNC(=O)CSc1nc(-c2cccs2)cc(C(F)(F)F)n1	inactive
CC(C)=CC(=O)Nc1nnc(C)s1	inactive
Cc1cc(C)n(C(=O)CNC(=O)c2cccs2)n1	inconclusive [inhibitor, full curve, poor fit]
Clc1ccc(SCCCCN2CCOCC2)cc1	inactive
CCCS(=O)(=O)N1CCCC(C(=O)NC(C)c2ccc3c(c2)OCCO3)C1 (configuration not stated)	inconclusive [inhibitor, full curve, poor fit]
CC(=O)N1N=C(c2ccc(Cl)cc2)OC1c1ccc(C(C)C)cc1 (configuration not stated)	inconclusive [inhibitor, full curve]

Structure (SMILES)	Potency
C=CCN1C=C2C(=O)C(C)(OC(=O)CCC(=O)OC)C(=O)C(Br)=C2C=C1c1ccc(OC)cc1 (configuration not stated)	inactive
O=C(Nc1cccc(Cl)c1)OCc1cn(-c2ccccc2)nn1	inconclusive [inhibitor, partial curve, poor fit]
COc1ccc(-c2nc(CN3CCCC(C(=O)NC4CCCC4)C3)c(C)o2)cc1 (configuration not stated)	inconclusive [inhibitor, full curve, poor fit]
CC(=O)c1c(-c2ccc(Cl)cc2)c2ccccc2[nH]c1=O	inactive
CCOC(=O)C1=C(CSc2nc(CC)c(C)cc2C#N)OC(N)=C(C#N)C1c1ccccc1 (configuration not stated)	inconclusive [inhibitor, full curve, poor fit]
COc1ccc(C(=O)NCC(=O)c2ccccc2)cc1	inconclusive [inhibitor, partial curve, poor fit]
CCC(=O)N1CCc2cc(Br)cc(S(=O)(=O)NCCc3ccc(C)cc3)c21	inactive
Cc1nc([N+](=O)[O-])c(Br)n1CC(=O)c1ccc(Br)cc1	inconclusive [inhibitor, full curve, poor fit]
Cc1c(/C=C/C(=O)c2ccccc2)cnn1C	inconclusive [inhibitor, full curve, poor fit]
Brc1ccccc1-c1nnc(CSc2nnc3sc4ccccc4n23)o1	inconclusive [inhibitor, partial curve, poor fit]
COc1ccccc1N1C(=O)C2C3CC(c4ccccc4)C(C3)C2C1=O (configuration not stated)	inconclusive [inhibitor, full curve, poor fit]
COc1cc2nc(N(CCN(C)C)C(=O)c3ccc(S(=O)(=O)N(C)CC4CCCO4)cc3)sc2cc1OC (configuration not stated)	inconclusive [inhibitor, full curve]
COC(=O)c1ccc(NC(=O)c2c(-c3ccccc3)c(-c3ccccc3)nn(C)c2=O)cc1	inactive
COc1ccc2nc(-c3ccccc3)cc(OC)c2c1	inactive
COc1ccc(NC(=O)CSc2ccc(NC(C)=O)cc2)cc1S(=O)(=O)N1CCCCC1	inconclusive [inhibitor, partial curve]
N#Cc1ccc(N/N=C/c2cn(-c3ccccc3)nc2-c2ccccc2)c([N+](=O)[O-])c1	inconclusive [inhibitor, partial curve]
CCOC(=O)Cn1c(=O)oc2cc(S(=O)(=O)N3CCc4ccccc43)ccc21	inactive
O=C(c1cc2ccccc2oc1=O)N(Cc1cccs1)C1CCS(=O)(=O)C1 (configuration not stated)	inactive
CCOC(=O)N1C=CC(C)=C[C@@H]2[C@@H](N3C(=O)c4ccccc4C3=O)C(=O)N21	inconclusive [inhibitor, partial curve, poor fit]
Cc1cc(C(=O)COc2cccnc2[N+](=O)[O-])c(C)n1Cc1cccs1	inactive
CCCCNC(=O)CN(CCc1ccccc1)S(C)(=O)=O	inconclusive [inhibitor, full curve, poor fit]
